Test results from patent publication US20230227547A1 (IPROGEN BIOTECH, published 2023).

Target: T1, HER2 (human epidermal growth factor receptor 2) (human, UniProt P04626)
T1 construct: whole, on cells; also called HER2 receptor; HER2/neu
Assay: flow cytometry (Alexa Fluor 488 channel) of cells kept 30 min on ice with 100 nM fluorescein-labelled anti-HER2(scFv)-Fc

B1: Anti-HER2(scFv)-Fc (Fc fusion)
scFv: QVQLLQSGAELKKPGESLKISCKGSGYSFTSYWIAWVRQMPGKGLEYMGLIYPGDSDTKYSPSFQGQVTISVDKSVSTAYLQWSSLKPSDSAVYFCARHDVGYCTDRTCAKWPEWLDNWGQGTLVTVSSGGGGSGGGGSGGGGSQSVLTQPPSVSAAPGQKVTISCSGSSSNIGNNYVSWYQQLPGTAPKLLIYGHTNRPAGVPDRFSGSKSGTSASLAISGFRSEDEADYYCASWDYTLSGWVFGGGTKLTVLGGS[human IgG1 Fc omitted]
notes: also called anti-HER2(scFv)-Fc-Fluorescein; anti-HER2(scFv)-Fc-Alexafluor405
binding result: binds
